# Assay results reported in the supplement of paper PMC11417369.
# ± gives the standard deviation of the averaged measurements. The list shows a part of the results.
# Tested on: PfAP2-I AP2 domain 3 (GST-tagged)
# Assay: gcPBM binding intensity (ln(normalized median fluorescence intensity)); higher = stronger DNA binding
# Method in brief: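 Alexa488 anti-GST antibody, scanned at 488 nm, detected GST-tagged P. falciparum DNA-binding domains that had been expressed in E. coli and incubated for 1 h on an Agilent 4 × 180k array. The array carried primer-extended double-stranded 36-bp intergenic genomic probes and negative controls. Binding intensity is the highest Masliner-normalised natural-log median intensity across replicate spots of either orientation of each probe.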
row,Sequence,gcPBM binding intensity (ln)
1,TATTTTATATTTTATGCACACTTATAAGAAATATGT [CACACA_site5647],10 ± 0.27
2,ACTGTACTATAAAATACACACATATAAATATAAATA [CACACA_site3009],8.23 ± 0.16
3,TATTTTAGAGAAAAAAATAAATTACAAAATGTTAGG [CACACA_negctrl_site1645],7.61 ± 0.68
4,TTAAATATCCATATTTCACACATTTCGATATATATA [CACACA_site4208],7.68 ± 0.69
5,GAATGTAAATATTAAAGTACACAGAATATATCTTCA [XGTACX_site8149],7.79 ± 0.16
6,TATAATATTATATAATGTACGCATTTATTATTTAAA [XGTACX_site8326],7.7 ± 0.27
7,ATAATGTCATAATTATATCCTTTGGCATAAAATAAA [XGTACX_negctrl_site574],7.74 ± 0.18
8,CCTAAATAAATGGACACACACATATTTATATTTATA [CACACA_site6789],7.79 ± 0.39
9,AAATAAAATCATGAATGTACACAAAAATTATTGCAA [XGTACX_site5691],7.99 ± 0.43
10,TTTGAAGGAAGGGGGGGAGGGGCCATAACAAAGGAA [GTGCAC_negctrl_site408],10.4 ± 0.26
11,ATACCATATAATTATGTGAGAAAATATAATATTCAT [CACACA_negctrl_site310],7.61 ± 0.65
12,ATTTTCTTAAATAAATGTACATGGCATTAAAAGTAA [XGTACX_site5119],7.88 ± 0.35
13,TATTTGTATATTCATTCCTGTATTCCCTTTTTTGTA [CACACA_negctrl_site1236],7.75 ± 0.9
14,TGTACGTTTTTTAACACACACACAAAAAAAAAAAAA [CACACA_site6006],8.18 ± 0.72
15,ATATATATATATGTATGTACATAATATTTTTTTTAT [XGTACX_site5551],9.215 ± 0.078
16,AAAAAAAAAAAAAATACACACAAATAATAAAAATAA [CACACA_site1431],8.02 ± 0.4
17,TATATACGTAATAGTAGTACTTTAAAATGCGGAAAT [XGTACX_site4597],8.08 ± 0.64
18,TGTACGAGTCGTAGAGTGCAGTCTGGAGAAACGTAC [GTGCAC_site9682],9.13 ± 0.3
19,AAAAAAGATATATAAACACACATATTTATATACACA [CACACA_site6866],7.51 ± 0.48
20,GATAGACACGTGCACACATGCAATACTTTATTCAGT [TGCATGCA_site778],10.1 ± 0.32
21,ATAAATAACTTTTAAATACACACGTAAAATATATTG [CACACA_site3302],7.88 ± 0.36
22,ATTTATATTATGAGGAGTACAATACTTATAGATGTA [XGTACX_site7510],7.85 ± 0.34
23,ATATACATTTTAAATTTTAATGTAACCCATGGGAGA [CACACA_negctrl_site588],7.45 ± 0.6
24,TGAACCCACAAATCACGTACATATATATACACGTGT [XGTACX_site7739],7.81 ± 0.4
25,TTTAACAACTATTTCTGTACACATTTTTATATAATT [XGTACX_site4917],8.29 ± 0.42
26,TTTTTTAAATATATATGTACATATATCTATATATAT [XGTACX_site3461],8.47 ± 0.64
27,TTTATAATTTATAGGCGGACAGGAAAATTTTATAAA [XGTACX_site6955],8.38 ± 0.45
28,GCAAGGTCCACACTGGTGCATTAAAAATAAAATATA [GTGCAC_site9956],11.6 ± 0.41

row,Sequence,gcPBM binding intensity (ln)
1,TTTTTAATTTTTTTCACACATATATAAATACAAATA [CACACA_site5530],7.79 ± 0.4
2,AAATTACAAATAAAATGTACTCATGTTTTTATTATA [XGTACX_site7223],7.47 ± 0.42
3,TACAGGAATATTTTTACACACTAAAAGTTATAAACT [CACACA_site6876],7.57 ± 0.4
4,TTTTTCTTTTTTTGTTGTACATTTTGTAATATTTAC [XGTACX_site4102],7.9 ± 0.59
5,TGAACAGGTCATAATTTACACACTATATATTTTATT [CACACA_site8123],7.59 ± 0.6
6,TATAATATATATGTATGTACGTATGTATGATTTTGT [XGTACX_site1164],7.92 ± 0.49
7,AAGAAAAATTCTTCACGTACAAATAATTATATATAT [XGTACX_site7217],8.11 ± 0.53
8,TTATTTATATATTGCCCACACACATGTGATTATTTA [CACACA_site1715],8.24 ± 0.6
9,AATATTTTTTGTTTTACACACATATATAAATATATA [CACACA_site3602],7.92 ± 0.54
10,TATTCCCCCCAACACACACACACACCGACATACCAC [CACACA_site8723],9.79 ± 0.61
11,GAATTATATACTTATTGTACAAAAAAAAAAAAAAAA [XGTACX_site3193],7.99 ± 0.61
12,ATAAACATGTATATATTAAAAAAAAAAAAAAAAAAT [CACACA_negctrl_site92],7.64 ± 0.42
13,AGTAAATATATTATATGTACGTATCATAAAATATAT [XGTACX_site1567],7.68 ± 0.54
14,TTAATATTAAAATATAAACACACAAAATTCAATTAT [CACACA_site9262],7.56 ± 0.64
15,AAGTTTAAAGGAATTACACAAACAAGCAAATATATA [CACACA_negctrl_site857],7.79 ± 0.63
16,ATTTTTTTTTTTTTTTTTAATTTATGTTGTTATTTT [CACACA_negctrl_site944],7.46 ± 0.52
17,GTAAAATAAATAATATAAATAAAATGAAATGAAACA [TGCATGCA_negctrl_site519],7.68 ± 0.61
18,ATTATATAATAATAAAGTACTAATATTTTTAAAAGA [XGTACX_site235],7.66 ± 0.4
19,TAATATATTAAAAGAAGTACATTTCTGATTTAATAG [XGTACX_site6403],7.84 ± 0.29
20,GAACCGTTTTTATGTAGTACATATGTATATATATAT [XGTACX_site1577],9.34 ± 0.5
21,TATTACAAAAATGTGTTATTATATAAACGTATAGAG [XGTACX_negctrl_site529],7.93 ± 0.39
22,TTTCTTATATTATATAAATATATAGATGTTAATGGT [CACACA_negctrl_site706],7.83 ± 0.38
23,AATATAATATAATGCACACATAAAAAAAAAAAAAAA [CACACA_site304],11.1 ± 0.87
24,AATGTAAAACGAAATGCACACTATGGAAAATATAAA [CACACA_site4559],9.17 ± 0.11
25,TCTTTATATCATCTTTCTAAATATATATATATATAA [CACACA_negctrl_site77],7.84 ± 0.55
26,TAATAATAATTAAAATGAGATAAATAAATATATATA [TGCATGCA_negctrl_site322],7.75 ± 0.49
27,TTATATATTTATAAATGTACGTATAAGAATTTAATT [XGTACX_site8541],7.93 ± 0.39
